In general, inhibition refers to the change of the read-out against control, counted positive when it falls.

Among all 340,000 compounds or so, about 6,900 (2%) were called active. Cut-off read from the data, not from the text of the source: active = inhibition above about 30%; inactive = below that, where a call was filed. The entries are a selection whose mix differs from that of the whole data set. The source gives no active or inactive call for entries shown without one.

This is an account of results in PubChem BioAssay AID485344 (National Center for Advancing Translational Sciences (NCATS), 2010).

Chain of UniProt P14416 (P14416 whole entry, looked up): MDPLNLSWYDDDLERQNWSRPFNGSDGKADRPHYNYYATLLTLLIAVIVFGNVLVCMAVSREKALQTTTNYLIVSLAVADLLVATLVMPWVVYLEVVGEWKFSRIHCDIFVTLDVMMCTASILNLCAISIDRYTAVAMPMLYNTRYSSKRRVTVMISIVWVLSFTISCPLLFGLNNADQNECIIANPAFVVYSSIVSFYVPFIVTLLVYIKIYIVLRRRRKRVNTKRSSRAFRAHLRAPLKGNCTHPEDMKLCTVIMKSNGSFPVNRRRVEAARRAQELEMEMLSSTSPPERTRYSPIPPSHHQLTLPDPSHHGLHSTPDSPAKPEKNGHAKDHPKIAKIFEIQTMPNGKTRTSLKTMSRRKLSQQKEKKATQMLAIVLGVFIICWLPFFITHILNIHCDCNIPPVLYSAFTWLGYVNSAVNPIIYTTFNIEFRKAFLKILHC

The target in this experiment is D(2) dopamine receptor (Homo sapiens) (UniProt P14416). Description: HTS Assay for Allosteric Antagonists of the Human D2 Dopamine Receptor: Primary Screen for Antagonists. Note: 0% is about no effect. Particulars: HEK293 TREx D2 cells, calcium flux, dopamine EC80; at 10 µM; stronger effect = higher value. In short, it runs like this:
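HEK293 T-REx D2 cells, tet-induced, calcium dye no-wash. Cpd pintool add, 180 s kinetic, then EC80 DA, 180 s kinetic. Ca flux read.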
A general note: A change in cytosolic calcium serves as a functional read-out for many receptors and channels.
Regarding `COc1cc(OC)c(N(C)C(=O)c2cc3c(=O)oc4ccccc4c3s2)cc1Cl`, the inhibition is -12.9%.
For `Cc1ccc(-n2nc(C(=O)N(C)Cc3ccccc3)c3c4ccccc4n(C)c3c2=O)cc1` the value was 7%.
As to `CC1(C2CC2)NC(=O)N(CC(=O)NCc2ccc(Cl)cc2Cl)C1=O` (centres undefined), the inhibition is active: 40%.
As to `Cc1ccc(C(=O)N(c2ccc(C)cc2)S(=O)(=O)c2ccc(Cl)cc2)cc1`, the inhibition is 5.74%.
Consider `COc1ccccc1N=C1SC(C(=O)Nc2ccccc2OC)CC(=O)N1C` (centres undefined), for which the inhibition was 2.74%.
Turning to `CCOC(=O)c1noc2ncnc(NCc3ccccc3OC)c12`, the inhibition was 5.71%.
In the case of `COc1ccccc1NC(=O)CSC1=Nc2ccccc2C2=NC(CC(=O)NCc3ccc4c(c3)OCO4)C(=O)N12` (centres undefined), the inhibition was -3.01%.
As to `O=C(NCCOCCn1c(=O)oc2ccccc21)Nc1cccc(Cl)c1`, the inhibition is -2.9%.
Consider `COC(=O)c1ccccc1NC(=O)C1CCCN(c2ncnc3onc(C)c23)C1` (centres undefined), for which the inhibition came out at 1.73%.
On to `Cc1ccc(CNC(=O)c2sc3nc4n(c(=O)c3c2C)CCCCC4)cc1`, for which the inhibition was -6.06%.
Consider `Cc1cccc(NC(=O)c2ccc(CNS(=O)(=O)c3ccc4c(c3)C(C)(C)C(=O)N4C)cc2)c1`, for which the inhibition is -9.56%.
Consider `COc1ccc(C(=O)CN2CCN(c3ncccn3)CC2)cc1`, for which the inhibition was active: 39.2%.
With `CSc1cccc(NC(=S)N(CCCN2CCCC(C)C2)Cc2cccs2)c1` (centres undefined) the figure was active: 45.6%.
Turning to `O=C(CCN1CCN(Cc2ccccc2)CC1)Nc1ccc(OCc2ccccc2)cc1`, the inhibition is active: 42%.
Take `Cc1ccccc1C(=O)N(Cc1ccc(N(C)C)cc1)CC1CCCO1` (centres undefined): the inhibition is -6.51%.
Consider `CCN1CCC2(CC1)C(C#N)=C(N)Oc1c2sc2nc(C)cc(C)c12`, for which the inhibition is active: 53.2%.
Turning to `CN1C(=O)C(C)(C)c2cc(S(=O)(=O)N3CCCC3C(=O)Nc3ccc(F)cc3)ccc21` (centres undefined), the inhibition is -5.62%.
For `CCOC(=O)COc1ccc(F)cc1C(=O)c1ccn2nc(-c3ccc(C)cc3)cc2n1` the value was 0.827%.
For the molecule `COc1cc(C(=O)N(Cc2cccnc2)c2nc3cc(C)c(C)cc3s2)cc(OC)c1OC`, the inhibition was -19.8%.
`COc1cc(Cl)c(C)cc1NC(=O)c1sc2nc(C)cc(C)c2c1N`: the inhibition is 16.3%.
Turning to `Cc1ccsc1CN(C(=O)COc1cccc(C)c1C)C1CCS(=O)(=O)C1` (centres undefined), the inhibition is -0.901%.
For the molecule `COc1ccccc1NC(=O)C(Cc1ccccc1)NS(=O)(=O)c1cccc2nsnc12` (centres undefined), the inhibition was -8.02%.
In the case of `CCCCOC(=O)c1cccc(NC(=O)/C=C/c2ccccc2Cl)c1`, the inhibition was -2.25%.
Turning to `COC(=O)c1ccc(Cl)cc1NC(=O)N(Cc1ccc(OC)cc1)C1CCN(C(C)=O)CC1`, the inhibition was determined as 2.33%.
With `O=C(Cn1c(SCC(=O)Nc2ccc(F)cc2)nc2ccccc21)NCc1ccccc1Cl`, the inhibition was -7.68%.
With `COc1ccc(OC)c(NC(=O)CSc2nc3ccccc3c(=O)n2CCC(=O)NC2CCCCC2)c1`, the inhibition came out at 7.09%.
As for `Cc1cccc(NC(=O)CN(C)CC(=O)NC(c2ccccc2)c2ccccc2)c1C`, the inhibition is active: 32.7%.
Consider `Cc1ccc(S(=O)(=O)NCc2ccc(C(=O)NCCc3cccc(C)c3)cc2)cc1`, for which the inhibition is 8.42%.
On to `COc1ccc(S(=O)(=O)N(Cc2nc(-c3ccc(Cl)cc3)no2)C2CCCCC2)cc1`, for which the inhibition was 0.206%.
With `N#Cc1c(C(F)(F)F)cc(-c2cccs2)nc1SCC(=O)Nc1cccc(C(F)(F)F)c1`, the inhibition was -1.74%.
As for `O=C(c1ccccc1Br)N1CCC(c2nc3ccccc3o2)CC1`, the inhibition amounted to 4.11%.
Turning to `Cc1ccc(Cn2c(=O)n(-c3cc(C)cc(C)c3)c(=O)c3oc4ccccc4c32)cc1`, the inhibition is -0.835%.
As for `O=S(=O)(c1ccc(-n2cnnn2)cc1)N1CCN(c2cccc(C(F)(F)F)c2)CC1`, the inhibition came out at 13.6%.
In the case of `Cc1oc(C)c2c(=O)cc(-c3ccc4c(c3)OCO4)cc(OC(=O)c3cccc(Cl)c3)c12`, the inhibition was 10.7%.
Regarding `CCC(C(=O)Nc1ccc(C(=O)OC)cc1)n1nc(-c2ccc(C)c(C)c2)ccc1=O` (centres undefined), the inhibition was -18.2%.
Consider `COc1cc(OC)cc(C(=O)Nc2cc(-c3nc4cccnc4s3)ccc2C)c1`, for which the inhibition was -22.6%.
With `Cc1c(C(=O)OC2CCCCCC2)[nH]c2c1C(=O)CC(c1ccc(N(C)C)cc1)C2` (centres undefined), the inhibition stood at 14%.
For the molecule `COc1ccc(NC(=O)C2CCN(S(=O)(=O)c3ccc4c(c3)CCCC(=O)N4)CC2)c(OC)c1`, the inhibition is -6.96%.
As for `CCOc1ccc(Nc2sc(C(=O)c3cccc(OC)c3)c(N)c2S(=O)(=O)c2ccccc2)cc1`, the inhibition was -15.9%.
On to `Cn1c(=O)c(=O)n(C)c2cc(S(=O)(=O)N3CCCC3C(=O)Nc3ccc(F)cc3)ccc21` (centres undefined), for which the inhibition was -5.68%.
With `Cc1ccc(C)c(N2N=C(C(=O)Nc3ccc(N4CCOCC4)cc3)CCC2=O)c1` the figure was active: 35.1%.
With `CCOc1ccc(CNC(=O)Cn2ccc3cc(S(=O)(=O)N4CCCCC4)ccc32)cc1`, the inhibition was -8.68%.
For `COc1ccc(S(=O)(=O)N(CC(=O)NCCSCc2ccccc2)c2ccc(C)cc2)cc1`, the inhibition is 1.99%.
For `Cc1ccc(NC(=O)CSc2ccc(-c3ccccn3)nn2)cc1F` the value was -26.8%; for `COc1ccc(-n2cc(C(=O)OCc3ccc(Cl)cc3)c3ccccc3c2=O)cc1`, -4.64%; for `CN(C)c1ccc(C(CNS(=O)(=O)c2ccc(F)cc2)N2CCOCC2)cc1` (centres undefined), -20.7%.
Turning to `COc1ccc2c(c1)c1c(c(=O)n(-c3ccccc3)c(=O)n1CC(=O)NCc1ccc(C)cc1)n2C`, the inhibition is -2.24%.
For `CSc1nn(Cc2cccc(Cl)c2)c(N(C(C)=O)C(C)=O)c1S(=O)(=O)c1ccccc1` the value was -1.34%; for `O=C(CSc1nc2nccnc2c(=O)n1CCc1c[nH]c2ccccc12)Nc1ccc(F)cc1`, 1.54%.
As for `COc1ccc(CC(=O)N(Cc2nc(-c3ccc(C)cc3)no2)C(C)C)cc1`, the inhibition was -8.88%.
For `COc1ccc(C2C(=O)N(C3CCC(C)CC3)CC(=O)N2C2CCCC2)cc1OC` (centres undefined), the inhibition is 6.78%.
Turning to `COc1cccc(NC(=O)CSC2=Nc3ccccc3C3=NC(CC(=O)NCc4ccc5c(c4)OCO5)C(=O)N23)c1` (centres undefined), the inhibition was 3.03%.
For the molecule `COc1ccc(C)cc1NC(=O)Nc1ccccc1OCc1cc(=O)n2ccccc2n1`, the inhibition was -9.19%.
For `CCCCNC(=O)c1cnc2sc(N3CCCCCC3)nn2c1=O` the value was 4.48%.
With `Cc1ccccc1-c1noc(-c2ccc(N3CCN(C)CC3)c([N+](=O)[O-])c2)n1` the figure was -16.5%; with `Cc1cc(C)c(NC(=O)C(=O)NCC(c2cccnc2)N2CCN(Cc3ccccc3)CC2)c(C)c1` (centres undefined), -8.66%; with `Cc1c(C(=O)N(Cc2ccco2)Cc2ccccc2Cl)oc2ccc(F)cc12`, -6.9%.
With `CN(C)c1ccc(NC(=O)CSc2nc3ccsc3c(=O)n2CCCCCC(=O)O)cc1` the figure was -9.67%; with `COc1ccc(OC(C)C(=O)NCc2nc(-c3cccc(C)c3)no2)cc1` (centres undefined), -21.3%.
